According to the RNAGym collection of RNA variant scans (doi:10.7554/elife.90254):
Read counts are not given, so values of variants with three or more changes are uncertain.

B1: OR4K15 (parent)
chain: GUUAACGGUCAUAGGCCAUGGAAACUAGGAGCACCAUUUCGCUGCCAGUGAAGAAAUGAACAAAGAAAAUCUGGGCCAGGCAGGCAUCAAAAGAAAUAGUCUUGCGCUCAACCAGAAAGUCUGUAAUCAUUUUAAGGGUA

Variants of: B1
Assay: self-cleavage, relative activity (ratio to wild type); higher = more cleavage; in vitro, sequencing; the parent is a self-cleaving ribozyme

Variant	self-cleavage
GUUAACGGUCAUAGGCCAUGGAAACUAGGAGCACCAUUUCGCUGCCAGUGAAGAAAUGAACAAAGAAAAUCUGGGCCAGGCAGGCAUCAAAAGAAAGAGUCUUGCGCUCGACCAGAAAGUCUGUAAUCACUUUAAGGGUA [U97G A110G U130C]	0.07
GUUAACGGUCAUAGGCCAUGGAAACUAGGAGCACCAUUUCGCUGCCAGUGAAGAAAUGAACAAAGAAAAUCUGGGCCAGGCAGGCAUCGAAAGAAAUGGUCUUGCGCUCAUCCAGAAAGCCCGUAAUCAUUUUAAGGGUA [A89G A98G A111U U120C U122C]	0.01
GUUAACGGUCAUAGGCCAUGGAAACUAGGAGCACCAUUUCGCUGCCAGUGAAGAAAUGAACAUAGAAGAUCUGGGCCAGGCAGGCAUCAAAAGAAAUAGUCUUGCGCUCAACCAGAAAGACUGUAAUCAUUUUAAGGGUA [A63U A68G U120A]	2.46
GUUAACGGUCAUAGGCCAUGGAGACUAGGAACACCAUUUCGCUGCCAGUGAAGAAAUGAACAAAGAAAAUCUGGGCCAGGCAGGCAUCAAAAGAAAUAGUCUUGCGCUCAACCAGGAAGUCUGUAAUCAUUUUAAGGGUA [A23G G31A A116G]	0.46
GUUAACGGUCAUAGGCCAUGGGAACUAGGAGCACCACUUCGCUGCCAGUGAAGAAAUGAACAAAGAAAAUCUGGGCCAGGCAGGCAUCAGAAGAAAUAGUCUUGCGCUCAACCAGAGAGUCUGUAAUCAUUUUAAGGGUA [A22G U37C A90G A117G]	0.16
GUUAACGGUCAUAGGCCAUGGAAACUAGGAGCACCUUUUCGCUGCCAGUGAAGAAAUGGACAAAGUAGAUCUGGGCCAGGCAGGCAUCAAAAGAGAUAGUCUUGCGCUCAACCAGAAAGUCCGUAAUCAUUUUAAGGGUA [A36U A59G A66U A68G A95G U122C]	1.02
GUUAACGGUCAUAGGCCAUGGAACCUAGGAGCACCAUUUCGCUGCCAGUGAAGAAAUGAACAAAGAAAAUCUGGGCCAGGCAGGCAUCAAAAGAAGUAGUCUUGCGCUCAACCAGAAAGACUGUAAUCAUUUUAAGGGUA [A24C A96G U120A]	2.35
GUUAACGGUCAUAGGCCAUGGAAACUAAGAGCACCAUUUCGCUGCCAGUGAAGAAGUGAACAAAGAAAAUCUGGGCCAGGCAGGCAUCAAUAGAAAUAGUCUUGCGCUCAACCAGAAAGUCUGUAAUCAUUUUAAGGGUA [G28A A56G A91U]	2.07
GUUAACGGUCCUAGGCCAUGGGGACUAGGAGCACCAUUUCGCUGCCAGUGAAGAAAUGAACAAAGAAAAUCUGGGCCAGGCAGGCAUCAAAAGAAAUAGUCUUGCGCCCAACCAGAACGUCUGUAAUCAUUUUAAGGGUA [A11C A22G A23G U108C A118C]	0.01
GUUAACGGUCAUAGGCCAUGGAAACUAGGAGCACCAUUUCGCUGCCAGUGAAGGAAUGAACAAAGAAAAUCUGGGCCAGGCAGGCAUCAAAAGAAAUAGACUUGCGCUCAACCAGAAAGUCUGUAAUCAUUUUAAGGGCA [A54G U100A U139C]	0.88
GUUAACGGCCAUAGGCCAUGGAAACUAGGAGCACCAUUUCGCUGCCAGUGAAGAAAUGUACACAGAAAAUCUGGGCCAGGCAGGCAUCAAAAGAAAUAGUCUUGCGCUCAACCAGAAAGUCUGUAAUCAUUUUAAGGGUA [U9C A59U A63C]	2.14
GUUAACGGUCAUAGGCCAUGGGAACUGGGAGCACCAUUUCGCUGCCUGUGAAGAAAUGAACAAAGAAGAUCUGGGCCAGGCAGGCAUCAAAGGAAAUGGUCUUGCGCUCAACCAGAAAGUCUGUAAUCAUUUUAAGGGUA [A22G A27G A47U A68G A92G A98G]	0.08
GUUAACGGUCAUAGGCUAUGGAAACUAGGAGCACCAUUUCGCUGCCAGUGAAGAAAUGAACAAAGAAAAUCUGGGCCAGGCAGGCACCAAAAGAAAUAGUCUUGCGCUCAACCAGAAAGUCAGUAAUCAUCUUAAGGGUA [C17U U87C U122A U131C]	0.94
GUUAACGGUCAUAGGCCAUGGAAACUAGGAGCACCAUUUCGCUGCCAGUGAAGAAAAGAACAAAGAAAAUCUGGGCCAGGCAGGCAUCAAAAGAAAUAGCCAUGCGCUCAACCAGAAAGUCUGUAAUCAUUUUAAGGGUA [U57A U100C U102A]	1.87
GUUAACGGUCGUAGGCCAUGGAAACUGGGAGCACCAUUUCGCUGCCAGUGAAGAAAUGGACAAAGAAAAUCUGGGCCAGGCAGGCAUCAAAAGAAAUAGUCUUGCGCUCAACCUGAAAGCCUGUAAUCAUUUUAAGGGUA [A11G A27G A59G A114U U120C]	0.03
GUUAACGGUCGUAGGCCAUGGAAACUAGGAGCACCAUUCCGCUGCCAGCGAAGAAAUGAACAAAGAAAAUCUGGGCCAGGCAGGCAUCAAGAGAAAUAGUCUUGCGCUCAACCAGAAAGUCUGUAAUCAUUUUAUGGGUA [A11G U39C U49C A91G A135U]	0.78
GUUAACGGUCGUAGGCCAUGGAAACUAGGAGCACCAUUUCGCUGCCAGUGAAGAAAUGAACAAAGAAAAUCUGGGCCAGGCAGGCGUCAAAAGAAAUAGUCUUGCGCUCAGCCAGAAAGUCUGUAAUCAUUUUAAGGGUA [A11G A86G A111G]	0.04
GUUAACGGUCAUAGGCCAUGGAAACUAGGAGCACCAUUUCGCUGCCAGUGAAGAAAUGAACAAAGAAAGUCUGGGCCAGGCAGGCAUCAAAAGAAAUAGUCUUGCGCUCAACCAGAAAGUCUGUAAACAUUUCAAGGGUA [A69G U127A U133C]	2.09
GUUAACGGUCAUAGGCCAUGGAAACUAGGAGCACCACUUCGCUGCCAGUGAAGAAAUGGACAAAGAAAAUCUGGGCCAGGCAGGCAUCAAAAGAAAUAGUCUUGCGCUCAACCAGAAAGGCUGUAAUCAUUUUAAGGGUA [U37C A59G U120G]	2.45
GUUAACGGUCAUAGGCCUUGGAAACUAGGAGCACCAUUCCGCUGCCAGUGAAGAAAUGAACAAAGAAAGUCUGGGCCAGGCAGGAAUCAAAAGAGAUAGUCUUGCGCUCAACCAGAAAGUCUGUAAUCAUUUUAAGGGUA [A18U U39C A69G C85A A95G]	1.23
GUUAACGGUCAUAGGCCAUGGAAACUGGGAGCACCAUUUCGCUGCCAGUGAAGAAACGAACAAAGAAAAUCUGGGCCAGGCAGGCAUCAAAAGAAAUAGUCUUGCGCUCAACCAGAAAGUCUGAAAUCAUUUUAAGGGUA [A27G U57C U124A]	0.75

Variant	self-cleavage
GUUAACGGUCAUAGGCCAUGGAAACUAGGAGCACCAUUUCGCUGCCAGUGAAGAAAUGAACAAAGAAAAUCAGGGCCAGGCAGGCUUCAAAAGAAAUAGUCUUGCGCUCAACCAGAAGGUCUGUAAUCAUUUUAAGGGUA [U72A A86U A118G]	0.06
GUUAACGGUCAUAGGCCAUGGAAACUAGGAGCACCACUUCGCUGCCAGUGAAGAAAUGAACAAAGAGAAUCUGGGCCAGGCAGGCAUCAGAAGAAAUAGUCUUGCGCUCAACCUGAAAGUCUGUAAUCAUUUUAAGGGUA [U37C A67G A90G A114U]	0
GUUAACGGUCAUAGGCCAUGGGAACUAGGAGCACCAUUUCGCUGCCAGUGGAGAAAUGAACAAAGAAAAUCUGGGCCAGGCAGGCAUCAAAAGAAAUAGUCUCGCGCUCAACCAGAAAGUCUGUAACCAUUUUAAGGGUA [A22G A51G U103C U127C]	0.36
GCUAACGGUCAUAGGCCAUGGAAACUAGGAGCACCAUUUCGCUGCCAGUGAAGAAAUGAACAAAGAAAAUCUGGGCCAGGCGGGCAUCAAAAGAAAUAGUCUUGCGCUCAACCAGGAAGUCUGUAAUCAUUUUAAGGGUA [U2C A82G A116G]	0.29
GUUAACGGUCAUAGGCCAUGGAAACUAGGAGCACCAUUUCGCUGCCAGUGAAGAAAUGAACAAAGAAAAUCGGGGCCAGGCAGGCAUCAAGAGAAAAAGUCUUGCGCUCAACCAGAAAGUCUGUAAUCAUUUUAAGGGUA [U72G A91G U97A]	0.37
GUUAGCGGUCAUAGGCCAUGGAAACUAGGAGCACCAUCUCGCUGCCAGUGAAGAAAUGAACAAAGAAAAUCUGGGCCAGGCAGGCAUCAAAAGAAAUAGUCUUGCGCUCAGCCAGAAAGUCUGUAAUCAUUUUAAGGGUA [A5G U38C A111G]	0.04
GUUAACGGUCAUAGGCCAUGGAAACUAGGAGCACCAUUUCGCUGCCAGUGAGGAAAUGAACAAAGAAAAUCUGGGCCAGGCAGGCAUCAAAAGAAAUAGUCAUGCACUCAACCAGAAAGUCUGUAAUCAUUUUAAGGGUA [A52G U102A G106A]	0.01
GUUAACGGUCAUAGGCCAUGGAGACUAGGGGCACCAUUUCGCUGCCAGUGGAGAAAUGAACAAAGAAAACCUGGGCCAGGCAGGCAUCAAAAGAAAUAGUCUUGCGCUCAACCAGAAAGUCUGUAAUCAUUUUAAGGGUA [A23G A30G A51G U70C]	0.56
GUUAACGGUCAUAGGCCAUGGAAACUAGGAGCUCCAUUUCGCUGCCAGUGAAGAAAUGAACAAAGAAAAUCUGGGCCAGGCAGGCAUCAAAGGAAAUAGUCUUGCGCUCAACCAGAAAGACUGUAAUCAUUUUAAGGGUA [A33U A92G U120A]	2.52
GUUAACGGUCAUAGGCCAUGGAAACUAGGAGCACCAUUUCGCUGCCAGUGAAAAGAUGAACAAAGAAAAUCUGGGCCAGGCAGGCAUCAAAAGAAAUAGUCUUGCGCUCAACCAGAAAGUCCGUAAUCGUUUUAAGGGUA [G53A A55G U122C A129G]	0.72
GGUAACGGUCAUAGGCCAUGGAAACUAGGAGCACCUUUUCGCUGCCAGCGAAGAAAUGAGCAAAGAAAAUCUGGGCCAGGCAGGCAUCAAAAGAAAUAGUCUUGCGCUCAACCAGAAAGUCUGUAAUCAUUUUAAGGGUA [U2G A36U U49C A60G]	0.47
GUUAACGGUCAUAGGCCAUGGAAACUAGGGGCACCAUUUCGCUGCCAGUGAAGAAAUGAACAGAGAAAAUCUGGGCCAGGCAGGCAUCAAAAGAAAUAGUCUUGCGCUCAACCAGAAAGACUGUAAUCAUUUUAAGGGUA [A30G A63G U120A]	1.68
GUUAACGGUCAUAGGCCAUGGAAACUAGGAGCACCAUUUCGCUGCCAGCGAAGAAAAGAACAAAGAAGAUCUGGGCCAGGCAGGCAUCAAAAGAAAUAGUCUUGCGCUCAACCAGAAAGUCUGUAAUCAUUUUAAGGGUA [U49C U57A A68G]	0.37
GUUAACGGUCAUAGGCCAUGGAAACUGGGAGCACCAUUUCGCUGCCAGUGAAGAAAUGAACAAAGAAAAUCUGGGCCAGGUAGGCAUCAAAAGAAAUAGUCCCGCGCUCAACCAGAAAGUCUGUAAUCAUUUUAAGGGCA [A27G C81U U102C U103C U139C]	0.07
GCUAACGGUCAUAGGCCAUGGAAACUAGGAGCACCAUUUCGCUGCCAGUGAAGAAGUGAACAAAGAUAAUCUGGGCCAGGCAGGCAUCAAAAGAAAUAGUCUUGCGCUCAACCAGAAAGUCUGUAAUCAUCUUAAGGGUA [U2C A56G A67U U131C]	1.33
GUUAACGGUCAUAGGCCAUGGAAACUAGGAGCACCAUUUCGCUGCCAGUGGAGAAACGAACAAAGAAAAUCUGGGCCAGGCAGGCAUCAAAAGGACUAGUCUUGCGCUCAACCAGAAAGUCUGUAAUCAUUUUAAGGGUA [A51G U57C A94G A96C]	0.21
GUUAACGGUCAUAGGCCAUGGUACCUAGGAGCACCAUUUCGCUGCCAGUGAAGAAAUGAACAAAGAAAAUCUGGGCCAGGCAGGCAUCAAAAGAGAUAGUCUUGCGCUCAACCAGAAAGUCUGUAAUCAUUUUAAGGGUA [A22U A24C A95G]	2.37
GUUAACGGUCAUAGGCCAUGGAAACUAGGAGCACCACUUCGCUGCCGGUGAAGAAAUGAACAGAGAAAAUCUGGGCCAGGCAGGCAUCAAAAGAAAUAGUCUUGCGCUCAACCAGAAAGUCUGUAGUCAUUUUAAGGGUA [U37C A47G A63G A126G]	1.39
GUUAACGGUCAUAGGCCUUGGAAACUAGGAGCACCAUCUCGCUGCCAGUGAAGAAAUGAACAAAGAAAAUCUGGGCCAGGCAGGCAUCAAAAGGAAUAGCCUUGCGCUCAACCAGAAAGUCUGUAAUCAUUUUAAGGGUA [A18U U38C A94G U100C]	1.41
GUUAACGGUCAUAGGCCAUGGAAACUAGGAGCACCAUUUCACUGCCAGUGAAGAAACGAACAAAGGAAAUCUGGGCCAGGCAGGCAUCAAAAGAAGUAGUCUUGCGCUCAACCAGAAAGUCUGUAAUCAUUUUAAGGGUA [G41A U57C A66G A96G]	1.64
